Some of the results follow.
How the values were obtained:
Assay in all cases: glycan array binding signal (z-score within array); higher = stronger binding
Details in all cases: glycan notation: IUPAC condensed, linker removed; mutation: G182A
Gal6S(b1-4)Glc = target: Gal6S(b1-4)Glc
Summary of the method: (§1)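 From the Consortium for Functional Glycomics database, 3228 arrays were curated, keeping only those whose protein sequence was available. Binding is given as a within-array Z-score averaged across arrays sharing a protein sequence and across linkers. Negative Z-scores can be read as non-binding.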

Gal6S(b1-4)Glc6S = target: Gal6S(b1-4)Glc6S
Summary of the method: as §1

Gal6S(b1-4)GlcNAc = target: Gal6S(b1-4)GlcNAc
Summary of the method: as §1

Gal6S(b1-4)GlcNAc6S = target: Gal6S(b1-4)GlcNAc6S
Summary of the method: as §1

GalNAc(a1-3)Gal = target: GalNAc(a1-3)Gal
Summary of the method: as §1

GalNAc(a1-3)GalNAc = target: GalNAc(a1-3)GalNAc
Summary of the method: as §1

[1] = target: GalNAc(a1-3)GalNAc(a1-3)Gal(a1-4)Gal(b1-4)GlcNAc
Summary of the method: as §1

GalNAc(b1-3)Gal = target: GalNAc(b1-3)Gal
Summary of the method: as §1

[2] = target: GalNAc(b1-3)Gal(a1-4)Gal(b1-4)GlcNAc
Summary of the method: as §1

[3] = target: GalNAc(b1-3)Gal(a1-4)Gal(b1-4)GlcNAc(b1-3)Gal(b1-4)Glc
Summary of the method: as §1

[4] = target: GalNAc(b1-3)Gal(a1-6)Gal(b1-4)Glc
Summary of the method: as §1

GalNAc(b1-3)GalNAc = target: GalNAc(b1-3)GalNAc
Summary of the method: as §1

GalNAc(b1-4)GlcNAc = target: GalNAc(b1-4)GlcNAc
Summary of the method: as §1

[5] = target: GalNAc(b1-4)GlcNAc(b1-2)Man(a1-3)[GalNAc(b1-4)GlcNAc(b1-2)Man(a1-6)]Man(b1-4)GlcNAc(b1-4)GlcNAc
Summary of the method: as §1

Glc(a1-4)Glc = target: Glc(a1-4)Glc
Summary of the method: as §1

Glc(a1-6)Glc(a1-6)Glc = target: Glc(a1-6)Glc(a1-6)Glc
Summary of the method: as §1

Glc(b1-4)Glc = target: Glc(b1-4)Glc
Summary of the method: as §1

Glc(b1-6)Glc = target: Glc(b1-6)Glc
Summary of the method: as §1

GlcA(b1-3)Gal = target: GlcA(b1-3)Gal
Summary of the method: as §1

GlcA(b1-3)GlcNAc = target: GlcA(b1-3)GlcNAc
Summary of the method: as §1

GlcA(b1-6)Gal = target: GlcA(b1-6)Gal
Summary of the method: as §1

[6] = target: GlcNAc(a1-3)Gal(b1-4)GlcNAc
Summary of the method: as §1

[7] = target: GlcNAc(a1-4)Gal(b1-3)GlcNAc
Summary of the method: as §1

[8] = target: GlcNAc(a1-4)Gal(b1-4)GalNAc
Summary of the method: as §1

[9] = target: GlcNAc(a1-4)Gal(b1-4)GlcNAc
Summary of the method: as §1

[10] = target: GlcNAc(a1-4)Gal(b1-4)GlcNAc(b1-3)Gal(b1-4)Glc
Summary of the method: as §1

[11] = target: GlcNAc(a1-4)Gal(b1-4)GlcNAc(b1-3)Gal(b1-4)GlcNAc
Summary of the method: as §1

[12] = target: GlcNAc(a1-4)Gal(b1-4)GlcNAc(b1-3)Gal(b1-4)GlcNAc(b1-3)Gal(b1-4)GlcNAc
Summary of the method: as §1

[13] = target: GlcNAc(a1-4)Gal(b1-4)GlcNAc(b1-3)Gal(b1-4)[Fuc(a1-3)]GlcNAc(b1-3)Gal(b1-4)[Fuc(a1-3)]GlcNAc
Summary of the method: as §1

[14] = target: GlcNAc(a1-6)Gal(b1-4)GlcNAc
Summary of the method: as §1

[15] = target: GlcNAc(b1-2)Gal(b1-3)GalNAc
Summary of the method: as §1

[16] = target: GlcNAc(b1-2)Man(a1-3)[GlcNAc(b1-2)Man(a1-6)]Man(b1-4)GlcNAc(b1-4)GlcNAc
Summary of the method: as §1

[17] = target: GlcNAc(b1-2)Man(a1-3)[GlcNAc(b1-2)Man(a1-6)]Man(b1-4)GlcNAc(b1-4)[Fuc(a1-6)]GlcNAc
Summary of the method: as §1

[18] = target: GlcNAc(b1-2)[GlcNAc(b1-4)]Man(a1-3)[GlcNAc(b1-2)Man(a1-6)]Man(b1-4)GlcNAc(b1-4)GlcNAc
Summary of the method: as §1

GlcNAc(b1-3)Gal = target: GlcNAc(b1-3)Gal
Summary of the method: as §1

[19] = target: GlcNAc(b1-3)Gal(b1-3)GalNAc
Summary of the method: as §1

GlcNAc(b1-3)Gal(b1-4)Glc = target: GlcNAc(b1-3)Gal(b1-4)Glc
Summary of the method: as §1

[20] = target: GlcNAc(b1-3)Gal(b1-4)GlcNAc
Summary of the method: as §1

B1: Gal 3 (Homo sapiens), P17931 (protein)
chain: MADNFSLHDALSGSGNPNPQGWPGAWGNQPAGAGGYPGASYPGAYPGQAPPGAYPGQAPPGAYHGAPGAYPGAPAPGVYPGPPSGPGAYPSSGQPSAPGAYPATGPYGAPAGPLIVPYNLPLPGGVVPRMLITILGTVKPNANILDFQRGNDVAFHFNPRFNENNRRVIVCNTKLDNNWAREERQSVFPFESGKPFKIQVLVEPDHFKVAVNDAHLLQYNHRVKKLNEISKLGISGDIDLTSASYTMI
- glycan array binding signal (z-score) (Gal6S(b1-4)Glc): -0.182
- glycan array binding signal (z-score) (Gal6S(b1-4)Glc6S): -0.167
- glycan array binding signal (z-score) (Gal6S(b1-4)GlcNAc): -0.187
- glycan array binding signal (z-score) (Gal6S(b1-4)GlcNAc6S): -0.185
- glycan array binding signal (z-score) (GalNAc(a1-3)Gal): -0.192
- glycan array binding signal (z-score) (GalNAc(a1-3)GalNAc): -0.19
- glycan array binding signal (z-score) [1]: -0.195
- glycan array binding signal (z-score) (GalNAc(b1-3)Gal): -0.186
- glycan array binding signal (z-score) [2]: -0.198
- glycan array binding signal (z-score) [3]: -0.172
- glycan array binding signal (z-score) [4]: -0.19
- glycan array binding signal (z-score) (GalNAc(b1-3)GalNAc): -0.193
- glycan array binding signal (z-score) (GalNAc(b1-4)GlcNAc): -0.192
- glycan array binding signal (z-score) [5]: -0.173
- glycan array binding signal (z-score) (Glc(a1-4)Glc): -0.194
- glycan array binding signal (z-score) (Glc(a1-6)Glc(a1-6)Glc): -0.194
- glycan array binding signal (z-score) (Glc(b1-4)Glc): -0.191
- glycan array binding signal (z-score) (Glc(b1-6)Glc): -0.191
- glycan array binding signal (z-score) (GlcA(b1-3)Gal): -0.173
- glycan array binding signal (z-score) (GlcA(b1-3)GlcNAc): -0.192
- glycan array binding signal (z-score) (GlcA(b1-6)Gal): -0.191
- glycan array binding signal (z-score) [6]: -0.194
- glycan array binding signal (z-score) [7]: -0.185
- glycan array binding signal (z-score) [8]: -0.192
- glycan array binding signal (z-score) [9]: -0.189
- glycan array binding signal (z-score) [10]: -0.192
- glycan array binding signal (z-score) [11]: 1.04
- glycan array binding signal (z-score) [12]: 9.32
- glycan array binding signal (z-score) [13]: -0.116
- glycan array binding signal (z-score) [14]: -0.193
- glycan array binding signal (z-score) [15]: -0.168
- glycan array binding signal (z-score) [16]: -0.192
- glycan array binding signal (z-score) [17]: -0.161
- glycan array binding signal (z-score) [18]: -0.189
- glycan array binding signal (z-score) (GlcNAc(b1-3)Gal): -0.186
- glycan array binding signal (z-score) [19]: -0.182
- glycan array binding signal (z-score) (GlcNAc(b1-3)Gal(b1-4)Glc): -0.162
- glycan array binding signal (z-score) [20]: -0.19

— the supplement of paper PMC8728848
